Assay results published in the supplement of paper PMC8728848.
The other results are listed elsewhere or left out.

Legend:
Test in all cases: glycan array binding signal (z-score within array); higher = stronger binding
Conditions in all cases: glycan notation: IUPAC condensed, linker removed
Fuc(a1-2)Gal = biological target: Fuc(a1-2)Gal
Outline: (§1)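 Negative Z-scores can be read as non-binding. The Z-score is calculated within each array and then averaged across arrays of one protein sequence at different concentrations or buffers and across linkers. Arrays, 3228 in all, were curated from the Consortium for Functional Glycomics database and kept only where the protein sequence was available.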

Fuc(a1-2)Gal(b1-3)GalNAc = biological target: Fuc(a1-2)Gal(b1-3)GalNAc
Outline: as §1

[1] = biological target: Fuc(a1-2)Gal(b1-3)GalNAc(a1-3)[Fuc(a1-2)]Gal(b1-4)Glc
Outline: as §1

[2] = biological target: Fuc(a1-2)Gal(b1-3)GalNAc(a1-3)[Fuc(a1-2)]Gal(b1-4)GlcNAc
Outline: as §1

[3] = biological target: Fuc(a1-2)Gal(b1-3)GalNAc(b1-3)Gal
Outline: as §1

[4] = biological target: Fuc(a1-2)Gal(b1-3)GalNAc(b1-3)Gal(a1-4)Gal(b1-4)Glc
Outline: as §1

[5] = biological target: Fuc(a1-2)Gal(b1-3)GalNAc(b1-4)[Neu5Ac(a2-3)]Gal(b1-4)Glc
Outline: as §1

Fuc(a1-2)Gal(b1-3)GlcNAc = biological target: Fuc(a1-2)Gal(b1-3)GlcNAc
Outline: as §1

[6] = biological target: Fuc(a1-2)Gal(b1-3)GlcNAc(b1-2)Man(a1-3)[Fuc(a1-2)Gal(b1-3)GlcNAc(b1-2)Man(a1-6)]Man(b1-4)GlcNAc(b1-4)GlcNAc
Outline: as §1

[7] = biological target: Fuc(a1-2)Gal(b1-3)GlcNAc(b1-2)Man(a1-3)[Fuc(a1-2)Gal(b1-3)GlcNAc(b1-2)Man(a1-6)]Man(b1-4)GlcNAc(b1-4)[Fuc(a1-6)]GlcNAc
Outline: as §1

[8] = biological target: Fuc(a1-2)Gal(b1-3)GlcNAc(b1-3)Gal(b1-4)Glc
Outline: as §1

[9] = biological target: Fuc(a1-2)Gal(b1-3)GlcNAc(b1-3)GalNAc
Outline: as §1

[10] = biological target: Fuc(a1-2)Gal(b1-3)GlcNAc(b1-3)[Fuc(a1-2)Gal(b1-3)GlcNAc(b1-6)]GalNAc
Outline: as §1

[11] = biological target: Fuc(a1-2)Gal(b1-3)GlcNAc(b1-3)[Gal(b1-4)GlcNAc(b1-6)]Gal(b1-4)Glc
Outline: as §1

[12] = biological target: Fuc(a1-2)Gal(b1-3)GlcNAc(b1-3)[Neu5Ac(a2-6)Gal(b1-4)GlcNAc(b1-6)]Gal(b1-4)Glc
Outline: as §1

[13] = biological target: Fuc(a1-2)Gal(b1-3)GlcNAc6S
Outline: as §1

[14] = biological target: Fuc(a1-2)Gal(b1-3)[Fuc(a1-4)]GlcNAc
Outline: as §1

[15] = biological target: Fuc(a1-2)Gal(b1-3)[Fuc(a1-4)]GlcNAc(b1-2)Man(a1-3)[Fuc(a1-2)Gal(b1-3)[Fuc(a1-4)]GlcNAc(b1-2)Man(a1-3)]Man(b1-4)GlcNAc(b1-4)GlcNAc
Outline: as §1

[16] = biological target: Fuc(a1-2)Gal(b1-3)[Fuc(a1-4)]GlcNAc(b1-2)Man(a1-3)[Fuc(a1-2)Gal(b1-3)[Fuc(a1-4)]GlcNAc(b1-2)Man(a1-6)]Man(b1-4)GlcNAc(b1-4)[Fuc(a1-6)]GlcNAc(b1-4)[Fuc(a1-6)]GlcNAc
Outline: as §1

[17] = biological target: Fuc(a1-2)Gal(b1-3)[Fuc(a1-4)]GlcNAc(b1-3)[Fuc(a1-3)[Gal(b1-4)]GlcNAc(b1-6)]Gal(b1-4)Glc
Outline: as §1

[18] = biological target: Fuc(a1-2)Gal(b1-3)[Fuc(a1-4)]GlcNAc(b1-3)[Gal(b1-4)GlcNAc(b1-6)]Gal(b1-4)Glc
Outline: as §1

[19] = biological target: Fuc(a1-2)Gal(b1-4)Fuc(a1-3)]GlcNAc(b1-2)Man(a1-3)[Fuc(a1-2)Gal(b1-4)[Fuc(a1-3)]GlcNAc(b1-2)Man(a1-6)]Man(b1-4)GlcNAc(b1-4)GlcNAc
Outline: as §1

Fuc(a1-2)Gal(b1-4)Glc = biological target: Fuc(a1-2)Gal(b1-4)Glc
Outline: as §1

Fuc(a1-2)Gal(b1-4)Glc6S = biological target: Fuc(a1-2)Gal(b1-4)Glc6S
Outline: as §1

Fuc(a1-2)Gal(b1-4)GlcNAc = biological target: Fuc(a1-2)Gal(b1-4)GlcNAc
Outline: as §1

[20] = biological target: Fuc(a1-2)Gal(b1-4)GlcNAc(b1-2)Man
Outline: as §1

[21] = biological target: Fuc(a1-2)Gal(b1-4)GlcNAc(b1-2)Man(a1-3)[Fuc(a1-2)Gal(b1-4)GlcNAc(b1-2)Man(a1-6)]Man(b1-4)GlcNAc(b1-4)GlcNAc
Outline: as §1

[22] = biological target: Fuc(a1-2)Gal(b1-4)GlcNAc(b1-2)Man(a1-3)[Fuc(a1-2)Gal(b1-4)GlcNAc(b1-2)Man(a1-6)]Man(b1-4)GlcNAc(b1-4)[Fuc(a1-6)]GlcNAc
Outline: as §1

[23] = biological target: Fuc(a1-2)Gal(b1-4)GlcNAc(b1-2)[Fuc(a1-2)Gal(b1-4)GlcNAc(b1-4)]Man(a1-3)[Fuc(a1-2)Gal(b1-4)GlcNAc(b1-2)Man(a1-6)]Man(b1-4)GlcNAc(b1-4)GlcNAc
Outline: as §1

[24] = biological target: Fuc(a1-2)Gal(b1-4)GlcNAc(b1-3)Gal(b1-4)GlcNAc
Outline: as §1

[25] = biological target: Fuc(a1-2)Gal(b1-4)GlcNAc(b1-3)Gal(b1-4)GlcNAc(b1-2)Man(a1-3)[Fuc(a1-2)Gal(b1-4)GlcNAc(b1-3)Gal(b1-4)GlcNAc(b1-2)Man(a1-6)]Man(b1-4)GlcNAc(b1-4)GlcNAc
Outline: as §1

[26] = biological target: Fuc(a1-2)Gal(b1-4)GlcNAc(b1-3)Gal(b1-4)GlcNAc(b1-3)Gal(b1-4)GlcNAc
Outline: as §1

[27] = biological target: Fuc(a1-2)Gal(b1-4)GlcNAc(b1-3)GalNAc
Outline: as §1

[28] = biological target: Fuc(a1-2)Gal(b1-4)GlcNAc(b1-3)[Fuc(a1-2)Gal(b1-4)GlcNAc(b1-6)]GalNAc
Outline: as §1

[29] = biological target: Fuc(a1-2)Gal(b1-4)GlcNAc(b1-3)[Fuc(a1-3)[Gal(b1-4)]GlcNAc(b1-6)]Gal(b1-4)Glc
Outline: as §1

[30] = biological target: Fuc(a1-2)Gal(b1-4)GlcNAc(b1-6)GalNAc
Outline: as §1

[31] = biological target: Fuc(a1-2)Gal(b1-4)GlcNAc6S
Outline: as §1

B1: Clec2 (Mus musculus), Q9JL99 (protein)
chain: MQDEDGYITLNIKPRKQALSSAEPASSWWRVMALVLLISSMGLVVGLVALGIMSVTQQKYLLAEKENLSATLQQLAKKFCQELIRQSEIKTKSTFEHKCSPCATKWRYHGDSCYGFFRRNLTWEESKQYCTEQNATLVKTASQSTLDYIAERITSVRWIGLSRQNSKKDWMWEDSSVLRKNGINLSGNTEENMNCAYLHNGKIHPASCKERHYLICERNAGMTRVDQLL
glycan array binding signal (z-score) (Fuc(a1-2)Gal): -0.183
glycan array binding signal (z-score) (Fuc(a1-2)Gal(b1-3)GalNAc): -0.371
glycan array binding signal (z-score) [1]: -0.209
glycan array binding signal (z-score) [2]: -0.253
glycan array binding signal (z-score) [3]: 9.47
glycan array binding signal (z-score) [4]: -0.36
glycan array binding signal (z-score) [5]: -0.265
glycan array binding signal (z-score) (Fuc(a1-2)Gal(b1-3)GlcNAc): -0.46
glycan array binding signal (z-score) [6]: 1.14
glycan array binding signal (z-score) [7]: 0.612
glycan array binding signal (z-score) [8]: -0.094
glycan array binding signal (z-score) [9]: 0.239
glycan array binding signal (z-score) [10]: -0.389
glycan array binding signal (z-score) [11]: -0.797
glycan array binding signal (z-score) [12]: -0.541
glycan array binding signal (z-score) [13]: -0.346
glycan array binding signal (z-score) [14]: -0.616
glycan array binding signal (z-score) [15]: 1.07
glycan array binding signal (z-score) [16]: -0.361
glycan array binding signal (z-score) [17]: -0.19
glycan array binding signal (z-score) [18]: -0.681
glycan array binding signal (z-score) [19]: 3.96
glycan array binding signal (z-score) (Fuc(a1-2)Gal(b1-4)Glc): -0.414
glycan array binding signal (z-score) (Fuc(a1-2)Gal(b1-4)Glc6S): 0.021
glycan array binding signal (z-score) (Fuc(a1-2)Gal(b1-4)GlcNAc): -0.056
glycan array binding signal (z-score) [20]: 0.641
glycan array binding signal (z-score) [21]: 0.979
glycan array binding signal (z-score) [22]: 2.24
glycan array binding signal (z-score) [23]: 0.056
glycan array binding signal (z-score) [24]: -0.542
glycan array binding signal (z-score) [25]: -0.086
glycan array binding signal (z-score) [26]: -0.684
glycan array binding signal (z-score) [27]: -0.075
glycan array binding signal (z-score) [28]: 0.032
glycan array binding signal (z-score) [29]: -0.801
glycan array binding signal (z-score) [30]: -0.493
glycan array binding signal (z-score) [31]: 0.511
